# Source: article PMC9671898
# Sequences of proteins named here, by UniProt entry; tags and fusion partners are left off.
# UniProt Q96524: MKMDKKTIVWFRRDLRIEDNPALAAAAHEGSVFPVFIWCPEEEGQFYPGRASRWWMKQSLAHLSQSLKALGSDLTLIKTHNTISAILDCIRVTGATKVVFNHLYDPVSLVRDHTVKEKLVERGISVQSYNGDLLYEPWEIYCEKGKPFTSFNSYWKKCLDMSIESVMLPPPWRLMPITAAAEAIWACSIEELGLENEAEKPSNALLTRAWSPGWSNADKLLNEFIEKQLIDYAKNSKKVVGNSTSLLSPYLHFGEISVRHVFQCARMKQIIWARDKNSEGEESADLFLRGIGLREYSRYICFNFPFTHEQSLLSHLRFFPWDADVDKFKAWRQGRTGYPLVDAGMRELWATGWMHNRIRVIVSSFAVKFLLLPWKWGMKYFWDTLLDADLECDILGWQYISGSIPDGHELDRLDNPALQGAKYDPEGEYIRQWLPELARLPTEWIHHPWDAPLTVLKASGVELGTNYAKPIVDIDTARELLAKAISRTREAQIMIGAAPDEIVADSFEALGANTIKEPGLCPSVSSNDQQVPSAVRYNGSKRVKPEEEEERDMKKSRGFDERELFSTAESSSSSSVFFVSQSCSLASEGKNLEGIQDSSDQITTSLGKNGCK
# These are yes or no findings as the source states them, for the method shown. Binding seen in cells or lysates may run through a third protein. Some entries that bind do so weakly or less than the wild type.
# Columns and labels:
# [1] = molecular target: T1, CIS1, endogenous in Arabidopsis seedlings (Arabidopsis thaliana (endogenous in Col-0 seedlings)) (UniProt Q94C11); experiment: co-IP; as the blue-light sample, but Col-0 seedlings kept in darkness for the additional 20 min (dark control); IP with anti-CIS1 antibody, blot with anti-CRY2
# T1 sequence: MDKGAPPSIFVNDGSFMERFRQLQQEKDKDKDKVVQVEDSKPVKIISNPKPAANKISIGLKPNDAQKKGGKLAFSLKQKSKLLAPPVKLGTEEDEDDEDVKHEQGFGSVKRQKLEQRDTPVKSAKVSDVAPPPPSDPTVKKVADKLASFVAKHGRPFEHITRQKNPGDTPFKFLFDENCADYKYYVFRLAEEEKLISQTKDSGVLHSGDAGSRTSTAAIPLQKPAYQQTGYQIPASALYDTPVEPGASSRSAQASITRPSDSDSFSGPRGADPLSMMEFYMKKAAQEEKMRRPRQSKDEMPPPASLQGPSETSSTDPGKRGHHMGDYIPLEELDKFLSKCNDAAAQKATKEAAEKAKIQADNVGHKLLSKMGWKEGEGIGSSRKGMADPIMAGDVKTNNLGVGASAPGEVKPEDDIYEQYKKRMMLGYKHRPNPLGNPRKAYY
# [2] = molecular target: T1, CIS1, endogenous in Arabidopsis seedlings (Arabidopsis thaliana (endogenous in Col-0 seedlings)); experiment: co-IP; endogenous proteins of Col-0 seedlings pretreated in darkness 24 h, MG132 in the dark, then blue light (30 μmol m^-2 s^-1) for 20 min; IP with anti-CIS1 antibody and protein-A Sepharose, 150 mM NaCl, 0.1% NP40, 4 °C; blot with anti-CRY2
substance,measurement,setting,value
"CRY2, endogenous in Arabidopsis seedlings (from UniProt Q96524 1-612) (receptor)",binding,[1],binds weakly
same,binding,[2],binds
